# This is one part of the list. Repeats are few or missing, and single values can be far off.
# What was measured:
# Experiment in all cases: cell viability relative to vehicle (% of vehicle); basal-like triple-negative breast cancer lines; higher = less cytotoxic
# Details in all cases: 10 µM; 72 h
# [1] = test system: HCC-1143
# [2] = test system: HCC-1187
# [3] = test system: MDA-468
# [4] = test system: SUM-149
# 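Note: stably firefly luciferase-GFP labeled cells in 96-well plates, viability read as luciferase photon flux after d-luciferin addition, treated wells normalized to vehicle wells, single-dose high-throughput screen.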
SMILES,cell viability [1],cell viability [2],cell viability [3],cell viability [4]
Cc1cccc(C(C)c2cnc[nH]2)c1C.Cl (centres undefined) [Medetomidine HCl],84.8,103,102,96.9
CC(=O)O[C@@]12CO[C@@H]1C[C@@H](O)[C@@]1(C)C(=O)[C@@H](O)C3=C(C)[C@@H](O)C[C@@](O)([C@@H](OC(=O)c4ccccc4)[C@H]21)C3(C)C [10-DAB (10-Deacetylbaccatin)],61.1,16,61.4,87.9
O=P1(NCCCl)OCCCN1CCCl (centres undefined) [Ifosfamide],86,88.1,82.2,103
CC(C)OC(=O)[C@H](C)N[P@](=O)(CO[C@H](C)Cn1cnc2c(N)ncnc21)Oc1ccccc1,125,93.8,121,147
CCC(COC(=O)c1cc(OC)c(OC)c(OC)c1)(c1ccccc1)N(C)C (centres undefined) [Trimebutine],83.4,90.7,95.2,102
Cl.NCC1(CC(=O)O)CCCCC1 [Gabapentin HCl],65.4,92.1,88,85.7
C[N+](C)(C)CC(=O)O.[Cl-] [Betaine hydrochloride],132,105,113,98.9
O=C(OC1CC2CCC(C1)[N+]21CCCC1)C(O)(c1ccccc1)c1ccccc1.[Cl-] (centres undefined) [Trospium chloride],115,104,101,120
C[C@]12COC(=O)C[C@@H]1CC[C@@H]1[C@@H]2CC[C@@]2(C)[C@H]1CC[C@]2(C)O [Oxandrolone],72.2,92.6,116,105
Br.CN1C2CC(OC(=O)C(CO)c3ccccc3)CC1C1OC12 (centres undefined) [Scopolamine hydrobromide],101,121,94.1,88.6
C=C1CC2C(CCC3(C)C(=O)CCC23)C2(C)C=CC(=O)C=C12 (centres undefined) [Exemestane],115,108,126,99.5
Cc1cccc(C)c1NC(=O)CN1CCCC1=O [Nefiracetam],79.6,99.4,108,116
N/C(N)=N\N.Cl [Aminoguanidine hydrochloride],76.2,78.7,98.5,88.7
O=S(=O)(F)Cc1ccccc1,62.5,99,93.3,87.3
C=CCN1CCC23c4c5ccc(O)c4OC2C(=O)CCC3(O)C1C5.Cl (centres undefined) [Naloxone HCl],82.1,77.1,88.4,111
CCNCC.O=C(O)Cc1ccccc1Nc1c(Cl)cccc1Cl [Diclofenac Diethylamine],71.5,74.3,105,98.6
